According to article PMC13083723 (Patterns, 2026):
The whole screen tested about 5,400 compounds, of which about 190 (3.5%) showed an effect of 50% or more. The list shows a part of the results.

What follows are compounds tested on Vero-E6 (assay: primary screen, phospholipidosis by LipidTOX staining; higher = more effect of the substance). Details: 10 µM.
Procedure, shortened: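 Drug-induced phospholipidosis detected with HCS LipidTOX Red reagent in Vero-E6 cells. Compounds tested at 10 μM, with amiodarone (10 μM) as positive control and DMSO (0.1 v/v %) as vehicle.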

Compound | result_ITMP
COC1/C=C\OC2(C)Oc3c(C)c(O)c4c(O)c(cc([O-])c4c3C2=O)NC(=O)/C(C)=C\C=C/C(C)C(O)C(C)C(O)C(C)C(OC(C)=O)C1C (centres unmarked) | -0.32%
N#C/C(=C\c1ccc(O)c(O)c1)C(=O)NCCCCc1ccccc1 | 3.86%
CC(NC(C)(C)C)C(=O)c1cccc(Cl)c1 (centres unmarked) | 4.52%
Cc1csc(-c2nnc(Nc3ccc(Oc4ncccc4-c4ccnc(N)n4)cc3)c3ccccc23)c1 | 24.6%
Nc1nc2c(ncn2COC(CO)CO)c(=O)[nH]1 | 1.51%
Nc1ccn([C@H]2C[C@H](O)[C@@H](CO)O2)c(=O)n1 | -1.56%
O=C(O)CC(=O)C(=O)O | -7.37%
COC(=O)[C@H](CC(C)C)NC(=O)[C@H](N)CC(C)C | -1.49%
CCN(CC)c1ccc(/C=N/NC(=O)c2ccc(O)cc2)cc1 | -5.55%
Cc1ncc(CO)c(C=O)c1O | -2.29%
CC(C)c1cccc2c(-c3ccccc3)cc(-c3ccc(-c4ccc(C(=O)O)cc4)[nH]3)nc12 | -2.63%
CO[C@H]1/C=C/O[C@@]2(C)Oc3c(C)c(O)c4c(O)c(c5c(nc6cc(C)ccn65)c4c3C2=O)NC(=O)/C(C)=C\C=C\[C@H](C)[C@H](O)[C@@H](C)[C@@H](O)[C@@H](C)[C@H](OC(C)=O)[C@@H]1C | -3.34%
CCNCCS(=O)(=O)NC[C@@]1(c2ccccc2)SC(NC(=O)C(C)(C)C)=NN1C(=O)C(C)(C)C | -1.01%
CN1CCC2=C(C1)c1ccccc1Cc1ccccc12 | 52.7%
O=C1[C@H]2CCCC[C@H]2C(=O)N1CCCCN1CCN(c2nsc3ccccc23)CC1 | 14.6%
Cc1cnc(Nc2ccc(OCCN3CCCC3)cc2)nc1Nc1cccc(S(=O)(=O)NC(C)(C)C)c1 | 122%
c1ccc(Cn2c(N3CCNCC3)nc3ccccc32)cc1 | 51.9%
Cn1ncnc1[C@H]1c2n[nH]c(=O)c3cc(F)cc(c23)N[C@@H]1c1ccc(F)cc1 | -5.75%
C=CCN(C)CCCCCCOc1ccc(C(=O)c2ccc(Br)cc2)c(F)c1 | 92.9%
COc1ccc(Cl)c(Nc2nc3ccccc3nc2NS(=O)(=O)c2cccc(NC(=O)C(C)(C)N)c2)c1 | -0.79%
CCCNC(=O)NS(=O)(=O)c1ccc(Cl)cc1 | -1.26%
CCN(CC)C(C)CN1c2ccccc2Sc2ccccc21 (centres unmarked) | 63.9%

Compound | result_ITMP
CC(=O)O[C@]1(C(C)=O)CC[C@H]2[C@@H]3C=C(Cl)C4=CC(=O)CC[C@]4(C)[C@H]3CC[C@@]21C | -1.88%
CN1CCN(CCc2ccc(Cl)c(Cl)c2)CC1 | 18.2%
CCCCCCCCCCC(=O)O[C@H]1CC[C@H]2[C@@H]3CCC4=CC(=O)CC[C@]4(C)[C@H]3CC[C@]12C | 0.88%
COc1ccc(-c2nc(N3CCOCC3)c3sc(CN(C)c4ncc(C(=O)NO)cn4)cc3n2)cn1 | -0.46%
COc1cc(-c2ncn(/C=C\C(=O)OC(C)C)n2)cc(C(F)(F)F)c1 | 4.15%
CN(CCCN1c2ccccc2CCc2ccccc21)CC(=O)c1ccc(Cl)cc1 | 13.8%
CCS(=O)(=O)N1CC(CC#N)(n2cc(-c3ncnc4[nH]ccc34)cn2)C1 | 0.97%
O=C(Nc1c[nH]nc1-c1nc2cc(CN3CCOCC3)ccc2[nH]1)NC1CC1 | 14.8%
O=C1NCC2(CCN(CCc3ccccc3)CC2)O1 | -1.69%
CCCCC/C=C\C/C=C\CCCCCCCC(=O)NCCCC(=O)O | -1.7%
Clc1ccc2c(c1)CCc1cccnc1C2=C1CCNCC1 | 18.1%
O=C(NC1(c2ccccc2)CC1)c1c(CN2CCC(N3CCCCC3)CC2)c(-c2cccc(C(F)(F)F)c2)nc2cc(Br)ccc12 | 35.3%
Nc1nc(NCCNc2ncc(-n3ccnc3)c(-c3ccc(Cl)cc3Cl)n2)ccc1[N+](=O)[O-] | -6.78%
O=C([O-])CCC/C=C\C[C@@H]1[C@@H](/C=C/[C@@H](O)COc2cccc(Cl)c2)[C@H](O)C[C@@H]1O (racemic) | -1.06%
CC1(C)OC[C@@H](COC(=O)CCc2ccc(OC[C@@H](O)CNCCNC(=O)N3CCOCC3)cc2)O1 | -3.76%
Cc1[nH]cnc1CN1CCc2c(c3ccccc3n2C)C1=O | 0.22%
O=S(=O)(c1cccc2c(O)nccc12)N1CCCNCC1 | -2.3%
Cc1cc(-c2ccc3c(c2)CC[C@H]3N2CC3(CCN(C(=O)Cc4cn5cc(C)sc5n4)CC3)C2)ncn1 | -1.47%
O=C(O)CCc1ccc(NCc2cccc(Oc3ccccc3)c2)cc1 | -4.86%
O=C(O)[C@H]1CC[C@H](c2cc3cccnc3c(-c3cccc(F)c3)n2)CC1 | -0.01%
O=C(Cn1c(=O)sc2ccc(Cl)cc21)N1CCN(CCO)CC1 | -3.14%
CC(C)c1ccccc1Cc1cc(C(=O)Nc2ccc(S(=O)(=O)c3ccccc3C(C)(C)C)cc2)c(O)c(O)c1O | -10.3%

Compound | result_ITMP
CC(=O)O[C@@H]1C[C@H]2C(C)(C)C(=O)C=C[C@]2(C)[C@H]2CC[C@@]3(C)[C@H](c4ccoc4)OC(=O)[C@H]4O[C@]43[C@@]21C | 4.73%
CC(C)(C)c1cc(C=C(C#N)C#N)cc(Br)c1O | -4.99%
CC(=O)[C@H]1CC[C@H]2[C@@H]3CC[C@H]4C[C@H](O)CC[C@]4(C)[C@H]3CC[C@]12C | -0.04%
Cc1cc2nc3c(=O)[nH]c(=O)nc-3n(C[C@H](O)[C@H](O)[C@H](O)CO)c2cc1C | -0.43%
O=C(NCc1ccc(F)cc1)N1CCN2C(=O)OC(c3ccccc3)(c3ccccc3)C2C1 (centres unmarked) | 1.09%
NC[C@H](CC(=O)O)c1ccc(Cl)cc1 | -7.85%
C[Se]C[C@H](N)C(=O)O | 2.63%
O=C(O)[C@@H]1C[C@@H](O)CN1 | -0.63%
CC(N)Cc1ccc(O)cc1 (centres unmarked) | -0.07%
CCCCCCCC/C=C/CCCCCCCC(=O)OC[C@H]1O[C@@H](n2ccc(N)nc2=O)C(F)(F)[C@@H]1O | -0.7%
NC(=O)Nc1cc(-c2cccc(F)c2)sc1C(=O)N[C@H]1CCCNC1 | -0.08%
Nc1ncnc2c1ncn2[C@@H]1O[C@H](COP(=O)(O)OP(=O)(O)OP(=O)(O)OP(=O)(O)OC[C@H]2O[C@@H](n3cnc4c(N)ncnc43)C(O)C2O)C(O)C1O (some centres unmarked) | 0.26%
Cc1noc(NS(=O)(=O)c2cccc3c(N(C)C)cccc23)c1C | -1.78%
Clc1ccc(N/N=C(\c2ccccc2)c2ccccn2)nc1 | 1.81%
CCN(CC)C(=O)c1ccc(O)c(OC)c1 | -1.23%
NC1(C(=O)O)CC1 | 0.83%
NC(C(=O)O)c1cc(O)no1 (centres unmarked) | -1.46%
CO[C@H]1O[C@@H]2O[C@@]3(C)CC[C@H]4[C@H](C)CC[C@@H]([C@H]1C)[C@@]24OO3 | -0.98%
C[C@H]1CO[C@@H]2Cn3cc(C(=O)NCc4ccc(F)cc4F)c(=O)c(O)c3C(=O)N12 | -14.2%
CCc1[nH]c(=O)[nH]c1C(=O)c1ccncc1 | -3.66%
COc1ccc(COc2ccc(CC#N)cc2)cc1 | -6.9%
CC(=O)[C@@]1(O)CC[C@H]2[C@@H]3CCC4=CC(=O)CC[C@]4(C)[C@H]3CC[C@@]21C | 0.05%

Compound | result_ITMP
O=C(c1c(F)ccc(NS(=O)(=O)N2CC[C@@H](F)C2)c1F)c1c[nH]c2ncc(-c3cnc(C4CC4)nc3)cc12 | -1.19%
CC(=O)N[C@@H](CSC/C=C(\C)CC/C=C(\C)CCC=C(C)C)C(=O)O | -5.85%
Nc1nccc(Oc2ccc(NC(=O)c3c[nH]cc(-c4ccc(F)cc4)c3=O)cc2F)c1Cl | -3.79%
COC1=C[C@@H]2[C@@H]3Cc4ccc(OC)c(O)c4[C@]2(CCN3C)CC1=O | -3.29%
COc1ccc(N(C(=O)Oc2c(C)cccc2C)c2ccnc(Nc3ccc(N4CCN(C)CC4)cc3)n2)c(OC)c1 | -0.06%
CC(C)N(CC[C@H](c1ccccc1)c1cc(CO)ccc1O)C(C)C | 9.49%
Cn1cc(C(F)(F)F)nc1-c1ccc(OCC(O)CNCCOc2ccc(O)c(C(N)=O)c2)cc1 (centres unmarked) | -1.92%
CN1CCN2c3ncccc3Cc3ccccc3C2C1 (centres unmarked) | -8.07%
O=C(Nc1cnn2ccc(N3CCC[C@@H]3c3cc(F)ccc3F)nc12)N1CC[C@H](O)C1 | -4.89%
CN(C(=O)CN(CCO)CC(=O)N(C)C(C)(C)Cc1ccccc1)C(C)(C)Cc1ccccc1 | -3%
COC(=O)N/N=C/c1c[n+]([O-])c2ccccc2[n+]1[O-] | -5.07%
CC(C)(Oc1ccc(Cl)cc1)C(=O)OCCOC(=O)c1cccnc1 | 1.59%
COc1cc(NS(=O)(=O)c2ccc(N)cc2)ncn1 | -1.77%
Cc1cc(C)nc(NS(=O)(=O)c2ccc(N)cc2)n1 | -2.34%
CCn1c(=O)c2c(nc(/C=C/c3ccc(OC)c(OC)c3)n2C)n(CC)c1=O | -5.39%
C[N@+]12CCCC[C@@H]1CCC(=C(c1cccs1)c1cccs1)C2 (racemic) | -3.77%
CC(=O)NCC(=O)N1[C@@H]2CC[C@H]1c1ccc(Nc3ncc(C(F)(F)F)c(NC4CCC4)n3)cc12 | 2.85%
c1ccc2cc(C3=NCCN3)ncc2c1 | -2.07%
CN([C@@H](Cc1ccc(OS(=O)(=O)c2cccc3cnccc23)cc1)C(=O)N1CCN(c2ccccc2)CC1)S(=O)(=O)c1cccc2cnccc12 | 7.28%
C[C@@H]1C/C=C/C=C/C=C/C=C/[C@H](O[C@@H]2O[C@H](C)[C@@H](O)[C@H](N)[C@@H]2O)C[C@@H]2O[C@](O)(C[C@@H](O)C[C@H]3O[C@@H]3/C=C/C(=O)O1)C[C@H](O)[C@H]2C(=O)O | 6.32%
